# From publication PMC11781671
# Sequences of proteins named here, by UniProt entry; tags and fusion partners are left off.
# UniProt P03165: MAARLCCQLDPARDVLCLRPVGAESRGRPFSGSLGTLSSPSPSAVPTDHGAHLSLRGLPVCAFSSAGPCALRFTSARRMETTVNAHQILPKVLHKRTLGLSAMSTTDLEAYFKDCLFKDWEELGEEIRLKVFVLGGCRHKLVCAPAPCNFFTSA
# UniProt P28360: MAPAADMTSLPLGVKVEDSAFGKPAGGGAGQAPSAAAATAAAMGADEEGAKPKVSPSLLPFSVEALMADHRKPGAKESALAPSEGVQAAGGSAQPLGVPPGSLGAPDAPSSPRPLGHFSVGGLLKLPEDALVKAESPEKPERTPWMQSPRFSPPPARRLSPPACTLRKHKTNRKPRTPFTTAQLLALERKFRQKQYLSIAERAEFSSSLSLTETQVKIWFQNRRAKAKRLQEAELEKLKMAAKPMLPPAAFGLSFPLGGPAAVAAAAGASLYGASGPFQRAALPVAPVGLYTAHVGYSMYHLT
# UniProt Q8WW22: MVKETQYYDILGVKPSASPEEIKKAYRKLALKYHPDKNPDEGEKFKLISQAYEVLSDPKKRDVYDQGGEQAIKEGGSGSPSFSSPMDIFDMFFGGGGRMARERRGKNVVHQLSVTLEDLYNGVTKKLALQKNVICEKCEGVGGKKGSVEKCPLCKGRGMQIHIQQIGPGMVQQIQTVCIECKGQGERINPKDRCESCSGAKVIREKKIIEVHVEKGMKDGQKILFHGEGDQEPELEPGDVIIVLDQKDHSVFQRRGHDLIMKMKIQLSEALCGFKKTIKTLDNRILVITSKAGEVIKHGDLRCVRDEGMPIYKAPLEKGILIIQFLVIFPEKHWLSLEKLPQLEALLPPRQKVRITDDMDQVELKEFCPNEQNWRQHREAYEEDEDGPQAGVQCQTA
# Results are given in words; binding and its absence hold for the method and conditions named. In cells and extracts the contact can be indirect. Some binding calls cover weakened binding; strength is not graded here. For part of these data: Tags and fused reporters may be left off the sequences shown.
# B1: Flag-tagged CRYAB (exogenous) (protein, UniProt P02511 1-175)
# chain: MDIAIHHPWIRRPFFPFHSPSRLFDQFFGEHLLESDLFPTSTSLSPFYLRPPSFLRAPSWFDTGLSEMRLEKDRFSVNLDVKHFSPEELKVKVLGDVIEVHGKHEERQDEHGFISREFHRKYRIPADVDPLTITSSLSSDGVLTVNGPRKQVSGPERTIPITREEKPAVTAAPKK
# B2: endogenous CRYAB (protein, UniProt P02511 1-175)
# chain: B1 chain
# How the values were obtained:
# [1] = biological target: HA-tagged HBx (hepatitis B virus X protein, HBV genotype D) (Hepatitis B virus genotype D) (UniProt P03165); test: co-IP; Huh7 cells co-transfected with a Flag-tagged host protein plasmid and pHBx-HA; MG132 for the last 12 h; precipitated with anti-HA beads
# [2] = biological target: Flag-tagged homeobox protein MSX-1 (MSX1) (human) (UniProt P28360); test: co-IP; Huh7 cells co-transfected with pMSX1-Flag and pHBx-HA or its control plasmid (1:1); MG132 for the last 12 h; beads not stated
# [3] = biological target: T1, Flag-tagged CRYAB (exogenous) (human) (UniProt P02511); test: co-IP; Huh7 cells co-transfected with a Flag-tagged host protein plasmid and an HBx plasmid; MG132 for the last 12 h; precipitated with anti-Flag beads
# T1 sequence: B1 chain
# [4] = biological target: Flag-tagged DNAJA4 (exogenous) (human) (UniProt Q8WW22); test: as above
# [5] = biological target: HA-tagged HBx (hepatitis B virus X protein, HBV genotype D) (Hepatitis B virus genotype D) (UniProt P03165); test: co-IP; Huh7 cells transfected with pHBx-HA; endogenous CRYAB detected
molecule,measurement,setting,value
Flag-tagged DNAJA4 (exogenous) (from UniProt Q8WW22 1-397),binding,[1],no binding
"HA-tagged HBx (hepatitis B virus X protein, HBV genotype D) (from UniProt P03165 1-154)",binding,[2],no binding
same,binding,[3],binds
same,binding,[4],no binding
B1,binding,[1],binds
B2,binding,[5],binds
